# Source: paper PMC6570896
# Chains of the proteins cited; added tags and fusions are not shown.
# UniProt Q9FXM3: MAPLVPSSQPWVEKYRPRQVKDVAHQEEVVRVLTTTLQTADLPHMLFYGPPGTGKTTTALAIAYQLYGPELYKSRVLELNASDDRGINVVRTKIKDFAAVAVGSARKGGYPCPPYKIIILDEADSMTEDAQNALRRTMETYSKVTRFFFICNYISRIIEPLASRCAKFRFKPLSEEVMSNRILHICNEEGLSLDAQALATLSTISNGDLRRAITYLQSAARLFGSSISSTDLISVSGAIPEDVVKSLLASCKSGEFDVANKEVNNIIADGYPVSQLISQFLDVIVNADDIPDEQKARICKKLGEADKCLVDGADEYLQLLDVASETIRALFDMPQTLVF
# No constants are given. Whether binding was seen depends on the method and setting. Binding seen in cells or lysates may run through a third protein. Some entries that bind do so weakly or less than the wild type. For some of these results: Where a sequence is shown, tags or fusion partners need not be part of it.
# B1: OsPCNA Δ1–120 (domain or fragment, UniProt P17070 121-263)
# chain: IDSEHLGIPDSEYQAIVRMPSSEFSRICKDLSSIGDTVIISVTKEGVKFSTAGDIGTANIVCRQNKTVDKPEDATIIEMQEPVSLTFALRYMNSFTKASPLSEQVTISLSSELPVVVEYKIAEMGYIRFYLAPKIEEDEEMKS
# B2: OsPCNA Δ244–263 (domain or fragment, UniProt P17070 1-243)
# chain: MLELRLVQGSLLKKVLEAIRELVTDANFDCSGTGFSLQAMDSSHVALVALLLRSEGFEHYRCDRNLSMGMNLNNMAKMLRCAGNDDIITIKADDGSDTVTFMFESPNQDKIADFEMKLMDIDSEHLGIPDSEYQAIVRMPSSEFSRICKDLSSIGDTVIISVTKEGVKFSTAGDIGTANIVCRQNKTVDKPEDATIIEMQEPVSLTFALRYMNSFTKASPLSEQVTISLSSELPVVVEYKIAE
# B3: OsPCNA Δ1–136 (domain or fragment, UniProt P17070 137-263)
# chain: VRMPSSEFSRICKDLSSIGDTVIISVTKEGVKFSTAGDIGTANIVCRQNKTVDKPEDATIIEMQEPVSLTFALRYMNSFTKASPLSEQVTISLSSELPVVVEYKIAEMGYIRFYLAPKIEEDEEMKS
# Key:
# Test in all cases: split reporter; BiFC: fusions to YFP^N (1-155 aa) and YFP^C (156-239 aa) co-expressed transiently in Nicotiana benthamiana leaf epidermal cells; YFP seen by confocal microscopy
# [1] = molecular target: OsPCNA Δ1–120 (rice (Oryza sativa)) (UniProt P17070)
# [2] = molecular target: OsPCNA-YFP^C (rice (Oryza sativa)) (UniProt P17070)
# [3] = molecular target: T1, OsRFC1-YFP^N (rice (Oryza sativa)) (UniProt Q2R2B4)
# T1 sequence: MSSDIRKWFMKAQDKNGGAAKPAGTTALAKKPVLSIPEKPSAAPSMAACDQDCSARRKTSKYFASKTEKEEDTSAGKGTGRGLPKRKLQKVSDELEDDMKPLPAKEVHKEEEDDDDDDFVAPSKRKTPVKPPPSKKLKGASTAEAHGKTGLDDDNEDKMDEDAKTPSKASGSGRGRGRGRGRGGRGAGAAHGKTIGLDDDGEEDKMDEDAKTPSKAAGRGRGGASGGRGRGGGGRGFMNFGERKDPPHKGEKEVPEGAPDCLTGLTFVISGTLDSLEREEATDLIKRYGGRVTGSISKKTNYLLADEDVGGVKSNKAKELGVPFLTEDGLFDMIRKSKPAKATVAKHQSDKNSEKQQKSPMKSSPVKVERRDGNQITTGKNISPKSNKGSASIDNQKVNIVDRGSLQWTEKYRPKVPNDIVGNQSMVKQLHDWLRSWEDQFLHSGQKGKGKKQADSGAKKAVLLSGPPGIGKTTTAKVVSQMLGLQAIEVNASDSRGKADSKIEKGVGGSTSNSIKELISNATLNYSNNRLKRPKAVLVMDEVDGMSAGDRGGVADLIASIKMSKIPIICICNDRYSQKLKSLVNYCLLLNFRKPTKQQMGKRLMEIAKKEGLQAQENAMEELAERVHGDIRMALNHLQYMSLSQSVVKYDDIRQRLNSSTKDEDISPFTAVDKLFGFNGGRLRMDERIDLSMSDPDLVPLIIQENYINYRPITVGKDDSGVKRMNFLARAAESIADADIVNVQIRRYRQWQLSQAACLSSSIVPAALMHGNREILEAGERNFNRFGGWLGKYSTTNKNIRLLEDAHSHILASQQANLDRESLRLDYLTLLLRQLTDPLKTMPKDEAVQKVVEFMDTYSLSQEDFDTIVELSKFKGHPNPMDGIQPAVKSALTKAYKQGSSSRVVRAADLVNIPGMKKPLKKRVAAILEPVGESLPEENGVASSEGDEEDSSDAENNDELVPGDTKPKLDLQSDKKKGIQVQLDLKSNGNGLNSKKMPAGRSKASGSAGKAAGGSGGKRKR
# [4] = molecular target: T2, OsRFC3-YFP^N (rice (Oryza sativa)) (UniProt Q6YZ54)
# T2 sequence: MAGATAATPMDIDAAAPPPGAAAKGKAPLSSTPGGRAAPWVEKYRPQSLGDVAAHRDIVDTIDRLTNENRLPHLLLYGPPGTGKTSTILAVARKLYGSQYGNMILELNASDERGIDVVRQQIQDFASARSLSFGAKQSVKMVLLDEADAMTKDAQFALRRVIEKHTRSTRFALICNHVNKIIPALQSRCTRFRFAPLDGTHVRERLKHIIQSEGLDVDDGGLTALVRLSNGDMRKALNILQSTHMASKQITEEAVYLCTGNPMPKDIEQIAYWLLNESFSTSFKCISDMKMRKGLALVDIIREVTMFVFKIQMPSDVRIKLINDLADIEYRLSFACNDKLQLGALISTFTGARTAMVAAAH
# [5] = molecular target: T3, OsRFC4-YFP^N (rice (Oryza sativa)) (UniProt Q7XRX1)
# T3 sequence: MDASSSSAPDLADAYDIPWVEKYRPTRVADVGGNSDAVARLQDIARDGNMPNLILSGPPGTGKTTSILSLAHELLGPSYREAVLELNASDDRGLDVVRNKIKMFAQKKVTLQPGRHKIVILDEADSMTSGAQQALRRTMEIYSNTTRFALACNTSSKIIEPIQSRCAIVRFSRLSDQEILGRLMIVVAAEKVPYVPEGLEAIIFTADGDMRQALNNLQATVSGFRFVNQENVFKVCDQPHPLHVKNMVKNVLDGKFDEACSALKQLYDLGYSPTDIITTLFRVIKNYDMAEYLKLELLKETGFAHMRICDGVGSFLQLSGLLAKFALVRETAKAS
# [6] = molecular target: OsPCNA Δ244–263 (rice (Oryza sativa)) (UniProt P17070)
# [7] = molecular target: OsRFC2-YFP^N (rice (Oryza sativa)) (UniProt Q9FXM3)
# [8] = molecular target: T4, OsRFC5-YFP^N (rice (Oryza sativa)) (UniProt Q852K3)
# T4 sequence: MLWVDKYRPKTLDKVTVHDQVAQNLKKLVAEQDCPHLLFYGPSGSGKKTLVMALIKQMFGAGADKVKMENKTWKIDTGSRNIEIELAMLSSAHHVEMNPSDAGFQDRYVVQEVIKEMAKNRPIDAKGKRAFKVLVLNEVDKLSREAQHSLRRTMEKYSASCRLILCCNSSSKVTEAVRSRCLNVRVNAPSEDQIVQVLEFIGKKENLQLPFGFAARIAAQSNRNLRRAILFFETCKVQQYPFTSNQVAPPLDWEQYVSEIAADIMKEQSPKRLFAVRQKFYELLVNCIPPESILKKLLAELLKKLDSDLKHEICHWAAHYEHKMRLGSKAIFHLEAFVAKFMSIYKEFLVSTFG
# [9] = molecular target: OsPCNA Δ1–136 (rice (Oryza sativa)) (UniProt P17070)
binding [1],binding [2],binding [3],binding [4],binding [5],binding [6],binding [7],binding [8],binding [9],Binder
no binding,no binding,binds,binds,binds,,,,,B1
,binds,no binding,binds,binds,no binding,no binding,no binding,,B2
,no binding,no binding,no binding,no binding,,no binding,no binding,no binding,B3
